# Article PMC4336329 (PLoS ONE, 2015)
# Hit rate of the full screen: of about 310,000 compounds, about 2,200 (0.71%) showed an effect of 50% or more. The effect is printed as a negative number. This is one part of the list.
# Biological target: human ether-à-go-go-related gene (hERG) potassium channel (human, UniProt Q12809)
# Assay: primary screen, population patch clamp on CHO cells stably expressing hERG
# Chain of human ether-à-go-go-related gene (hERG) potassium channel (Q12809 whole entry, looked up): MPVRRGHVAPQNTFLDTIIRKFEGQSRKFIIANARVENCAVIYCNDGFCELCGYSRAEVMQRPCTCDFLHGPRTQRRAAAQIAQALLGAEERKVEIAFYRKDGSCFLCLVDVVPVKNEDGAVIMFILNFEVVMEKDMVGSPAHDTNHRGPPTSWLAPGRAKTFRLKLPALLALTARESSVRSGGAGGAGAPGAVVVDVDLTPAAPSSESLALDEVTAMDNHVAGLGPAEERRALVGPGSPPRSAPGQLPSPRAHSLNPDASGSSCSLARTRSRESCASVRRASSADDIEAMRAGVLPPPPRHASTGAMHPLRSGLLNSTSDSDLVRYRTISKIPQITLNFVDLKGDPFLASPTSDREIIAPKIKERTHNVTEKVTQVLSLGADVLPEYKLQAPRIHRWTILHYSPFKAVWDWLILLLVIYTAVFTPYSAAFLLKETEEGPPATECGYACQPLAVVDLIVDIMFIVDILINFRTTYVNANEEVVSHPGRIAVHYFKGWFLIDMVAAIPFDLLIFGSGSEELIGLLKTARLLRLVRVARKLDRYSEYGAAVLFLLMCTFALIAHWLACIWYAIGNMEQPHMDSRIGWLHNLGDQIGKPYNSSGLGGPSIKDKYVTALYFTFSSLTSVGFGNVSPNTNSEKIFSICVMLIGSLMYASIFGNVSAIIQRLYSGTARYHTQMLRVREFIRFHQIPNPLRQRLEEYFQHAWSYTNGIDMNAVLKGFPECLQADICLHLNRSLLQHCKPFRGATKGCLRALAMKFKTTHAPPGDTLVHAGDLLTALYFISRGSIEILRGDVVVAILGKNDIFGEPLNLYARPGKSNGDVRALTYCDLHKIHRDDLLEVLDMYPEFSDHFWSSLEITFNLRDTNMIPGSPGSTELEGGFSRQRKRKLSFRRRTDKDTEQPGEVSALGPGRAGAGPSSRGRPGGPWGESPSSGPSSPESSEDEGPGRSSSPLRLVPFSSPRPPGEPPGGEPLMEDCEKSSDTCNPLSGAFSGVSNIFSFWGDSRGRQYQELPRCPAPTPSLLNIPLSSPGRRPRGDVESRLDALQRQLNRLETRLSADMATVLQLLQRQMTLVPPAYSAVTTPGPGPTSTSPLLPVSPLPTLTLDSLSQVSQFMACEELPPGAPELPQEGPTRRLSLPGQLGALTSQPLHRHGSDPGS
row,Compound,"hERG current change (%, negative = inhibition) at 1uM [%]"
1,Cc1ccc(C(C)C)c(OCC(=O)N2CCN(Cc3nc4cc([N+](=O)[O-])ccc4n3C)CC2)c1,-17.9
2,O=C(Nc1nnc(SCc2ccc(F)cc2)s1)c1cccnc1Cl,5.65
3,COc1ccc(N=CC2=C(O)c3ccccc3C2=O)cc1,9.01
4,CNC(=S)N(CCO)Cc1cc2cc3c(cc2[nH]c1=O)OCCO3,10.8
5,Cc1cc2c3ccccc3ncn2n1,20.1
6,COc1ccc(-c2ccnc3c(C(=O)O)cnn23)cc1,16
7,CCCC(=O)NC1C2CC3CC(C2)CC1C3 (centres unmarked),11.5
8,O=C(Cn1cnc2c(nnn2-c2ccccc2)c1=O)NCCc1ccccc1,1.61
9,CCOC(=O)c1cnc2nc[nH]n2c1=O,11
10,O=C(NN1C(=O)c2ccccc2C1=O)c1ccccc1[N+](=O)[O-],6.5
11,O=C(Nc1ccccn1)c1ccc([N+](=O)[O-])cc1Cl,6.99
12,COc1cccc2[nH]c3c(=O)n(CCCN4CCOCC4)cnc3c12,0.499
13,Cl.O=C(c1ccc(Cn2ccc([N+](=O)[O-])n2)cc1)N1CCN(Cc2ccccc2)CC1,-1.17
14,Cc1csc2c(N3CCN(C(=S)Nc4ccc(C(F)(F)F)cc4)CC3)ncnc12,17
15,Cc1ccc(S(=O)(=O)N2CCN3CCCC3C2)cc1 (centres unmarked),-5.48
16,Cc1ccccc1NC(=O)NCCCCc1ccccc1,-1.31
17,CC(C)CC(=O)NCCCCc1ccccc1,12.1
18,O=C(CCNS(=O)(=O)c1ccc(Br)cc1)NCc1ccc(Cl)cc1,16.4
19,CCN(CC)C(=O)COc1ccc2c3c(c(=O)oc2c1)CCCC3,9.9
20,CCc1cc(CNC(=O)CCc2nnc(Cc3cccc(C)c3)o2)on1,12.7
21,O=C(O)CCCN1C(=O)C(=O)/C(=C(/O)c2ccc(Cl)cc2)C1c1ccccc1 (centres unmarked),12.3
22,Cc1ccc(OCC(=O)NNC(=O)[C@@H]2CCCC[C@@H]2C(=O)O)c(Br)c1,16.6
23,CCCCC(c1nnnn1CCOC)N1CCN(Cc2ccccc2)CC1.Cl (centres unmarked),-11.8

row,Compound,"hERG current change (%, negative = inhibition) at 1uM [%]"
1,COc1ccc(C)cc1Nc1nc(N)c2ccccc2n1.Cl,7.86
2,CCN(C(=O)COc1cccc2cccnc12)C1CCS(=O)(=O)C1 (centres unmarked),13.3
3,O=C(CCc1nc2ccccc2[nH]1)Nc1ccccc1F,12.7
4,O=C(c1ccc(-c2cc3ccccc3oc2=O)cc1)N1CCN(c2ccc(Cl)cc2[N+](=O)[O-])CC1,-1.77
5,CCC(CC)C(=O)NC1CCSC1=O (centres unmarked),12.4
6,CCOc1ccc(-c2nc(CSc3nnc(N)s3)cs2)cc1,9.35
7,CC(=O)c1sc(NCc2ccccc2)nc1C,19.1
8,COC(=O)c1cc(C(=O)NCc2ccc3c(c2)OCO3)cc([N+](=O)[O-])c1,5.16
9,O=C(N/N=C\c1ccc(Cl)s1)C1COc2ccccc2O1 (centres unmarked),12.7
10,COc1cccc(CN(CC(=O)NCc2ccccc2)C(=O)c2csnn2)c1,11.9
11,Cc1c(C(=O)OCC(=O)Nc2ccc3c(c2)OCO3)cccc1[N+](=O)[O-],-1.77
12,OC(COc1ccc(OCC(O)CN2CCCCC2)cc1)CN1CCCCC1 (centres unmarked),18.1
13,COc1ccc(-n2c(NNC(C)=O)nc3sc4c(c3c2=O)CCCC4)cc1,14.5
14,O=C(CSc1nnc(CCCN2C(=O)c3cccc4cccc(c34)C2=O)n1-c1ccccc1)NCCCO,11.6
15,COc1ccc(CNC(=O)c2nnn(-c3cccc(C(F)(F)F)c3)c2N)cc1,9.2
16,NS(=O)(=O)c1ccc(NC(=S)N2CCCC2)cc1,11.7
17,O=C(Cc1ccccc1)N1N=C(c2ccncc2)CC1(O)C(F)(F)F (centres unmarked),11.1
18,O=C(CCC1CCCN(Cc2ccc3c(c2)OCCO3)C1)NCc1ccc(F)c(F)c1 (centres unmarked),-39.3
19,CC1Cc2ccccc2N1C(=O)CSc1nc2c(c(=O)n(C)c(=O)n2C)n1Cc1ccccc1 (centres unmarked),-6.98
20,CCC(=O)Nc1ccc(C(=O)Nc2ccc(OC)cc2[N+](=O)[O-])cc1,7.65
21,CCOCC(=O)Nc1cc(C)on1,-8.39
22,NC1=NC(=O)CC(C(=O)NCCc2ccccc2)S1 (centres unmarked),16.3
23,CCOC(=O)C1=C(C)N(CCCC(=O)O)C(=O)NC1c1ccc(Cl)cc1 (centres unmarked),21.1

row,Compound,"hERG current change (%, negative = inhibition) at 1uM [%]"
1,Cc1cc(C(F)(F)F)n2nc(C(=O)O)c(Cl)c2n1,6.65
2,Cn1c(C(=O)O)c(CC(=O)NCC2COc3ccccc3O2)c2ccccc21 (centres unmarked),8.01
3,Cc1cc(-c2nc3cccnc3s2)ccc1NS(=O)(=O)c1ccc2c(c1)OCCO2,12
4,Nc1ccccc1C(=O)/C=C/c1ccc2c(c1)OCO2,16.6
5,COc1ccc(-c2cc(C(=O)NCC(c3ccccc3)N(C)C)c3ccccc3n2)cc1OC (centres unmarked),-3.42
6,CN(C)C(=O)c1ccc(-c2cc(C(F)(F)F)nn2C)s1,6.88
7,NC(=O)CNC1CC(=O)N(CCc2ccccc2)C1=O (centres unmarked),8
8,COc1cc(/C=N/Nc2nncc3ccccc23)cc(OC)c1OC,6.92
9,CCSc1nc2ccccc2[nH]1,-0.69
10,CCOC(=O)C1=NN(c2ccc(OC)cc2)C2C(=O)N(c3ccccc3OC)C(=O)C12 (centres unmarked),11.8
11,CCN(CC)S(=O)(=O)c1ccc(Cl)c(NC(=O)COc2ccc3c(C)cc(=O)oc3c2)c1,6.68
12,O=C(Cn1nnc(-c2ccc(CN3CCOCC3)cc2)n1)N(c1ccccc1)c1ccccc1,6.69
13,COc1ccc(N2C(=O)NC(NS(=O)(=O)c3ccc(Cl)cc3)(C(F)(F)F)C2=O)cc1 (centres unmarked),-3.67
14,O=C(Nc1nc(-c2ccc(-c3ccccc3)cc2)cs1)C1CCCO1 (centres unmarked),1.63
15,CC(=O)c1c(C)nc(-c2ccccc2)n1O,4.71
16,O=C1N=C(C=c2ccc(=Cc3[nH]c(=O)[nH]c3O)cc2)C(=O)N1,16.5
17,O=C(NC(=S)Nc1ccccc1F)C1CCCCC1,15.7
18,CCOc1ccc2nc(NC(=S)N(C)C)sc2c1,15.7
19,O=C(CSc1nc2ccccc2c(=O)n1-c1ccc(F)cc1)Nc1cc(S(=O)(=O)N2CCOCC2)ccc1Cl,8.93
20,O=C(c1ccc2nc3ccccc3c(=O)n2c1)N1CCN(Cc2ccc3c(c2)OCO3)CC1,-12.2
21,COC(=O)c1ccccc1NC(=O)C1CC(c2ccc(F)cc2)=NO1 (centres unmarked),-9.68
22,O=C(CCC1CCCN(c2ncccn2)C1)NCc1ccc(F)c(F)c1 (centres unmarked),-11.6
23,O=C(CSc1ccc2nnc(-c3ccccn3)n2n1)Nc1ccc(F)cc1,-1.22

row,Compound,"hERG current change (%, negative = inhibition) at 1uM [%]"
1,O=C(CSc1ccccn1)N1CCN(c2ccccc2)CC1,6.49
2,CN(Cc1ccccn1)C(=O)c1ccc2nc(Cc3cccc(Cl)c3)oc2c1,-1.56
3,CCCCn1c(SCC(=O)Nc2ccc3c(c2)OCCO3)nnc1C(CC)N(C)C (centres unmarked),16.8
4,CC1CCN(C(=O)CCCNC(=O)Cn2cnc3sc4c(c3c2=O)CCCC4)CC1,-0.87
5,CN1C(=O)C(=O)N(CC(=O)Nc2ccccc2OC(F)F)C1=O,17.4
6,Cl.c1ccc(C(c2nnnn2Cc2ccco2)N2CCN(C3CCCC3)CC2)cc1 (centres unmarked),-9.06
7,CCCCOC1(c2ccccc2)OC(=O)c2ccccc21 (centres unmarked),-4.19
8,CC(=O)c1c(-c2ccccc2)c2cc([N+](=O)[O-])ccc2[nH]c1=O,2.78
9,CCOc1ccc(S(=O)(=O)Nc2cccc(C(=O)NCC(C)(C)N3CCOCC3)c2)cc1,-11.7
10,COc1ccc(C(=O)/C=C(/C)N(C)C)cc1,-16.6
11,CCn1c(SCC(=O)Nc2ccc(Br)cc2)nc2sc3c(c2c1=O)CCN(C)C3,20
12,COC(=O)c1c(NC(=O)CSc2nncs2)sc2c1CCCCC2,6.92
13,Cc1csc2ncc(C(=O)NCc3ccccn3)c(=O)n12,10.9
14,Cl.Fc1ccc(C(c2nnnn2C2CCCCC2)N2CCCC2)cc1 (centres unmarked),7.37
15,CCOC(=O)C1(CC2CC2)CCN(C(=O)c2cc(C3CC3)nc3ccccc23)CC1,12.2
16,COc1ccc2cc(/C=C/C(=O)N3CCN(CC(=O)N4CCCCCC4)CC3)ccc2c1,2.57
17,O=C(O)c1ccc(-n2c(/C=C/c3cccc([N+](=O)[O-])c3)nc3ccccc3c2=O)cc1,11.7
18,Cc1ccc(S(=O)(=O)N(CC(=O)N2CCC(C(N)=O)CC2)Cc2ccc(F)cc2)cc1,-0.354
19,O=C(CSc1nc2ncccc2[nH]1)NC1CCCC1,7.24
20,Cc1ccccc1CS(=O)(=O)c1cn(CC(=O)N2CCC(C)CC2)c2ccccc12,2.72
